Source: the supplement of paper PMC11417369
The other results are listed elsewhere or left out.

What follows are sequences tested on PfAP2-HC AP2 domain (GST-tagged) (assay: gcPBM binding intensity (ln(normalized median fluorescence intensity)); higher = stronger DNA binding).
Summary of the method: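 DNA-binding domains from P. falciparum, fused to GST and produced in E. coli, were put on an Agilent 4 × 180k double-stranded probe array for 1 h in 1× PBS holding 1% milk, 0.2 mg/ml BSA, 0.5% salmon testes DNA and 0.03% Triton X-100. Probes were primer-extended, 36 bp long and drawn from intergenic genomic regions, with negative controls included. After Alexa488 anti-GST antibody detection and a 488 nm scan, binding intensity was set as the highest Masliner-normalised natural-log median intensity across replicate spots of either probe orientation.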

Point of comparison: “TCTAATTTAAAATACACACACATATCTATAATATAT [CACACA_site7029]”, “gcPBM binding intensity (ln)” value 10.1. Against it:
- TGTAGATAAAATAAACGTACGTATTGATTTTTTTCA [XGTACX_site1610] — lower, 9.55
- TATTTGTAAAGACATGCATGGTACTTTTAAAACATA [TGCATGCA_site7] — lower, 9.6
- TTAATATTTGTTCTGATCCTTTTATTCAACTTTTTT [CACACA_negctrl_site536] — lower, 9.69
- TGGTAATACCCATACACACACACATACACATATATA [CACACA_site8877] — higher, 10.3
- TTTTCTTTCTTGTTTCGTATATTATAAAAAAAAAAG [CACACA_negctrl_site854] — lower, 9.17
- TATTTGGGTATTTTTACACACATTAAAATATATATA [CACACA_site5800] — lower, 9.67
- GTATTTTGCATAAATGCATGTAAATATATACCTACC [TGCATGCA_site957] — lower, 9.56
- TTTTTGTATTCTCCGGACTACATTATGTTGTAAATG [CACACA_negctrl_site691] — lower, 9.85
- GTAATAAAAAATTAATGTACTTTATATAATATATTA [XGTACX_site5935] — lower, 9.48
- GTATAAAAATTTAGGAGTACAATATATTTATAATAT [XGTACX_site2127] — lower, 9.67
- TATTGTATAAAAATAACATGCAATCCTTATACTGCT [TGCATGCA_site345] — lower, 9.57
- TGTACAGTAAATACAACACACATTTGTATAAATATA [CACACA_site4705] — the same, 10.1
- TAATATATAAAAAGATGTACTTTTGCAAGTTCCTTT [XGTACX_site8519] — lower, 9.54
- GGACTTTATAAAAATGGTACACGCAATTCTATAATC [XGTACX_site6515] — lower, 9.61
- GGTACATACAAACACACACACAAAAAAAAAAAAATA [CACACA_site1577] — higher, 10.3
- ATATATATATATGTATGTACGTATGTATGTATGAAT [XGTACX_site4857] — lower, 10
- CCATATGATATATATTGTACATTATATATTATTTCT [XGTACX_site1697] — lower, 9.68
- TATGTTGTTTATTTAGTGCATATTTAAATATTATAA [GTGCAC_site9601] — lower, 9.65
- AATGACATTCTTACACGTACAAAATAAAAAATAAAA [XGTACX_site6932] — lower, 9.66
- TATATATTATATTCATGTACGTAAAAATTTTGAATA [XGTACX_site6734] — lower, 9.49
- ATTTATTTTATAATATATAAATGATATATCTTATTA [CACACA_negctrl_site66] — lower, 9.51
- TATATATATATATATTGTACATATTAATATTAGAAA [XGTACX_site8923] — lower, 9.51
- ATTACCATATAAAACACACAAACATACATACATACA [CACACA_site3729] — lower, 9.97
